# Assay results published in PubChem BioAssay AID1508642 (National Center for Advancing Translational Sciences (NCATS), 2021).
# Out of some 43,000 compounds screened, about 200 (0.47%) were called active. Another 12% or so got no clear call; they are omitted. Calls come from the whole dose curve; as a rule, active = well fitted cell-killing curve with a large enough effect; inconclusive = small, poorly fitted or top-dose-only effect, or effect the other way; inactive = flat fitted curve, though single readings scatter. Some of the results follow.
# Test: Cell viability qHTS assay in S16 Pmp22-F2sN cells; note: nearly all actives have a fitted effect of over 65% in size
# Details: S16 Pmp22-F2sN Schwann cells (luciferase reporters placed in the Pmp22 gene) viability, CellTiter-Glo, 24 h; series mostly up to 57.5 µM; activity change, negative = cytotoxicity: at the top concentration
# From the text: Assay Provider: Jim Inglese Ph.D. National Center for Advancing Translational Science, National Institutes of Health, Rockville, MD CMT is a heterogeneous group of neurological disorders that affect approximately 1 in 2,500 people. In particular, the most common form of CMT, CMT1A is genetically linked to the duplication of the PMP22 gene which leads to Schwann cell overexpression, thus manifesting itself as a typical case of dose-sensitive diseases. To identify small molecule compounds that can mediate the expression of PMP22 we developed a phenotypic assay screening strategy by utilizing genome editing techniques to construct Schwann cell lines containing novel reporter technology to monitor the transcriptional or translational regulation of PMP22. For high sensitivity we use a bioluminescent reporter system embedded in the 3' UTR of the PMP22 gene (S16(c9) Pmp22-F2sN) to identify compounds that inhibit gene expression. […] We can further discriminate the effect of all transcriptionally active molecules on PMP22 translation or stability with an assay that incorporates a short NLuc peptide (HiBiT) at the C-terminus of expressed PMP22 (S16(f8) PMP22-HiBiT) allowing alpha complementation and luminescence detection of membrane-associated PMP22 protein. These assays were screened against the NCATS Sytravon Library Collection. Miniaturization of these assays to 1536-well plate format for quantitative high throughput screening (qHTS) yielded rich data sets immediately from the qHTS assay (S16(c9) Pmp22-F2sN), when compared with data from a cell viability assay (Cell TiterGlo) to identify compounds that decreased the output signals through cellular toxicity to streamline the selection process of actives for subsequent characterization using the HiBiT assay (S16(f8) PMP22-HiBiT).
# Cell viability assay in S16 Pmp22-F2sN cells PROTOCOL TABLE (format as described by Inglese J, Shamu CE and Guy RK. 2007) SEQUENCE No. (e.g., 1, 2, 3, etc.); […] (e.g., Cells, Incubation, Reagent, etc.); VALUE and DESCRIPTION. 1. Cells. Add 500-1,000 cells in 4 uL in growth media (DMEM High Glucose, No Phenol Red media + 10% heat-inactivated FBS + 1% Pen/Strep supplemented media) per well into Greiner 1536-well white/solid bottom high base, TC-treated plates. 2. Compounds. Library compounds and controls added at 23nL per well, transferred by Pin Tool. 3. Incubation. Incubate plates at 37C, 5% CO2, 95% RH for 24 h. 4. Reagent. Add 3uL CellTiter-Glo per well of Greiner 1536-well plates. 5. Incubation. Incubate plates at room temperature for 15 min., protect from light. 6. Detector. FLuc luminescence measured using CCD-based camera (Viewlux). NOTES (numbers refer to Sequence numbers above; values are from representative experiments) 6. Luminescence Read: Clear filter; Exposure = 1 sec, Gain = High, Speed = Slow, Binning = 2X REFERENCES: 1. Inglese J, Shamu CE and Guy RK, Reporting data from high throughput screening of small molecule libraries, Nature Chemical Biology, 2007, 3(8): 438-441. doi.org/10.1038/nchembio0807-438 2. Yasgar A, Shinn P, Jadhav A, Auld DS, Michael S, Zheng W, Austin CP, Inglese J and Simeonov A, Compound Management for Quantitative High-Throughput Screening. J. Assoc. Lab. Auto., 2008, 13: 79-89. doi: 10.1016/j.jala.2007.12.004
# % is set by controls: 0 for no effect and ±100 for the full control effect.
row,SMILES,"activity change, negative = cytotoxicity"
1,Cc1ccc(C)c(Cn2c3ccccc3c3cnn(CC(=O)NC4CCC(C)CC4)c(=O)c32)c1 (stereo not given),inactive: 6.7%
2,O=C(NCCc1ccccc1)C1CCN(c2ncnc3c2nc2n3CCCCC2)CC1,inactive: 7.7%
3,COc1ccc(NC(=O)CSC2=Nc3ccccc3C3=NC(CCC(=O)NCc4cccs4)C(=O)N23)cc1 (stereo not given),inactive: -2.71%
4,Cc1ncc(CO)c2c1Oc1nc(-c3ccc(F)cc3)nc(SCC(=O)N3CCCCC3)c1C2,inactive: -13.8%
5,Cc1ccc(CN2C(=O)N(c3ccc(F)cc3)C(=O)C2CC(=O)Nc2ccc(Cl)cc2)cc1 (stereo not given),inactive: 3.17%
6,COc1ccc(CCCc2nnc(SCC(=O)Nc3cc(C)ccc3C)o2)cc1,inactive: -2.3%
7,COC(=O)c1ccccc1NC(=O)c1ccc(COc2cc(C)cc(C)c2)o1,inactive: 15.3%
8,CC(=O)Nc1ccc(-n2c(CCC(=O)O)ccc2-c2ccc(Br)cc2)cc1,inactive: 1.48%
9,COc1ccc(CNC(=O)Cc2c(C)c3c(cc(C)c4c(C)coc43)oc2=O)cc1OC,inactive: 19.8%
10,COc1ccc(Cl)cc1NC(=O)Cn1c(=O)n(Cc2cccs2)c(=O)c2cccnc21,inactive: -13.5%
11,CCOC(=O)c1cc(-c2ccc(C)cc2)n(CC(=O)Nc2ccccc2F)c1C,inactive: 6.52%
12,Cc1nn(CC(=O)NCc2ccc(N(C)C)cc2)c(=O)c2c(C)n(-c3ccc(Cl)cc3)nc12,inactive: -22.7%
13,CCOc1ccc(NC(=O)CCn2c(=O)c3cccn3c3cccnc32)cc1,inactive: 18%
14,Cc1nc2ccc(S(=O)(=O)N(CC(=O)Nc3cccc(Cl)c3)Cc3ccccc3)cc2s1,inactive: -24.2%
15,CCn1c(=O)n(-c2ccc(F)cc2)c(=O)c2sc3ccccc3c21,inactive: 1.31%
16,CC(C)(C)OC(=O)N1CCC(c2c(C(=O)N3CCN(c4ccccc4)CC3)cnn2-c2ccccc2)CC1,inactive: 5.71%
17,CCOC(=O)c1c(Nc2ccc(F)cc2)nnc(-c2ccccc2)c1-c1ccccc1,inactive: -19.8%
18,COc1ccc(CCNC(=O)c2ccc3c(c2)N(Cc2cc(C)ccc2C)C(=O)c2ccccc2S3=O)cc1OC (stereo not given),inactive: 10.8%
19,COc1ccc(-c2nc(SCC(=O)N3CCN(c4ccc(F)cc4)CC3)n[nH]2)cc1,inactive: 5.03%
20,CCCCOc1ccc(CNC(=O)Cc2ccc(NC(=O)N3CCCCc4ccccc43)cc2)cc1,inactive: -1.32%
21,CC(=O)N1CCC2(CC1)OC(=O)C(C)=C2C(=O)Nc1cc(C)ccc1C,inactive: 3.29%
22,CCCN(C(=O)c1cc2ccc3cccnc3c2[nH]1)c1ccc(F)cc1,inactive: 2.15%
23,Cc1cc(Br)ccc1NC(=O)Cn1cnc2sc(C)c(S(=O)(=O)N3CCN(C)CC3)c2c1=O,inactive: 1.23%
24,COC(=O)c1sc2cccc(F)c2c1S(=O)(=O)Nc1ccc(N(C)C)cc1,inactive: 3.73%

row,SMILES,"activity change, negative = cytotoxicity"
1,COc1ccc(C)cc1NC(=O)Cn1c(=O)cc(C)c2c(C)nn(C)c21,inactive: -13.1%
2,Cc1nc(-c2ccc(Cl)cc2)sc1CCNC(=O)Cc1ccc(F)cc1,inactive: -4.93%
3,O=S(=O)(c1ccccc1)c1nc(-c2ccc(Cl)cc2Cl)oc1N1CCCCC1,inactive: 10.7%
4,CCN(CC)CCCNC(=O)c1cn(CC)c2ccc(S(=O)(=O)N3CCc4ccccc4C3)cc2c1=O,inactive: -0.216%
5,Cc1ccc(C(=O)Nc2cccc(O)c2)cc1S(=O)(=O)N1CCCCCC1,inactive: 1.76%
6,CCCCSCCCNC(=O)c1cn(C)c2ccc(S(=O)(=O)N3CCCCC3)cc2c1=O,inactive: -2.94%
7,Cc1ccc(-n2cc(-c3ccccc3)nc2S(=O)(=O)CC(=O)Nc2ccc(F)cc2)cc1,inactive: -15.9%
8,COc1ccc(-n2nc(C(=O)Nc3ccc(C)cn3)c3c4ccccc4n(C)c3c2=O)cc1,inactive: 6.21%
9,Cc1ccc(N(CC(=O)NCc2ccc(F)cc2)S(=O)(=O)c2c(C)nn(C)c2C)cc1,inactive: 3.94%
10,COc1cccc(CNC(=O)c2ccc3c(c2)nnn3C2CCCC2)c1,inactive: 6.18%
11,Cc1ccc(C)c(N2CCN(C(=O)C3CCCN(S(=O)(=O)c4cccc5nsnc45)C3)CC2)c1 (stereo not given),inactive: -11.1%
12,O=C(CNC(=O)c1ccccc1F)OCc1cc(=O)n2ccsc2n1,inactive: 4.04%
13,CCN(CC)C(=O)Cn1c(=O)n(-c2ccc(OC)cc2OC)c(=O)c2c(C)c(C(=O)N(CC)CC)sc21,inactive: -1.48%
14,COc1ccc(NC(=O)c2c(-c3ccc(C)cc3)nnc3ccccc23)cc1Cl,inactive: 0.41%
15,COc1ccccc1C(=O)Nc1nnc(SCc2cc(=O)c3cc(Cl)ccc3[nH]2)s1,inactive: -0.887%
16,COc1ccc(OC)c(NC(=O)Cn2ccc3ccccc3c2=O)c1,inactive: 15.1%
17,CCC(=O)Nc1ccc2nc(SCCOc3ccccc3)sc2c1,inactive: 4.46%
18,CC(=O)Nc1nonc1-c1nnc(SCC(=O)Nc2ccccc2)n1-c1ccccc1,inactive: -6.44%
19,CCOc1ccc(CNS(=O)(=O)c2ccc3[nH]c(=O)ccc3c2)cc1,inactive: 5.48%
20,Cn1c(=O)oc2cc(S(=O)(=O)NC(Cc3ccccc3)C(=O)NCc3ccc(F)cc3)ccc21 (stereo not given),inactive: 4.9%
21,Cc1ccc(C)c(N2CCN(Cc3nnc(-c4ccc5c(c4)OCO5)o3)CC2)c1,inactive: 0.269%
22,COc1ccccc1OC(C)C(=O)Nc1c(C(=O)c2ccc(Cl)cc2)oc2ccccc12 (stereo not given),inactive: 20.4%
23,CCn1c(C)c(C)c2cc(C(=O)NCCCN3CCCCC3)ccc21,inactive: -1.99%
24,CCC(=O)N1c2ccccc2CC1C(=O)NCCN1CCN(c2cccc(C(F)(F)F)c2)CC1 (stereo not given),inactive: -1.41%

row,SMILES,"activity change, negative = cytotoxicity"
1,Cc1ccc(NC(=O)CSc2ncn[nH]2)cc1C,inactive: 6.82%
2,CCOc1ccccc1NC(=O)CCc1c(C)nn(-c2ccc(N3CCOCC3)nn2)c1C,inactive: -18.2%
3,Cc1c(Cl)cccc1NC(=O)c1noc2c1CCCC2,inactive: -14.7%
4,CNS(=O)(=O)c1cn(CC(=O)Nc2cccc(OC)c2)cc1S(=O)(=O)NC,inactive: 2.77%
5,COC(=O)c1ccc(-n2c(CCC(=O)O)ccc2-c2ccc(C)cc2)cc1,inactive: 16.3%
6,CCOC(=O)Cn1c(=O)n(CC2CCCO2)c2nc(-c3cccc(C)c3)nc(C(N)=O)c21 (stereo not given),inactive: 23%
7,Cc1cc2c(cc1C)NC(CC(=O)Nc1ccccc1)C(=O)N2 (stereo not given),inactive: -0.994%
8,Cc1ccc(O)c(NC(=O)c2ccc(Br)c(S(=O)(=O)N3CCCCC3)c2)c1,inactive: 13.9%
9,CCN(Cc1ccccc1)C(=O)Cn1cc(S(=O)(=O)Cc2cccc(Cl)c2)c2ccccc21,inactive: -21.9%
10,Cc1ccccc1CSc1nc2cc(C(=O)NC3CCCC3)ccc2c(=O)n1Cc1ccccc1,inactive: -1.6%
11,CC1CCN(C(=O)CSc2c(C(C)C)cnc3c2c(=O)n(C)c(=O)n3C)CC1,inactive: -23.3%
12,COC(=O)CC1Oc2ccccc2-n2cc(-c3ccccc3)nc21 (stereo not given),inactive: 25.3%
13,O=C(CCCn1c(=O)c2cccn2c2ccc(F)cc21)NCc1ccc(Cl)cc1,inactive: -2.4%
14,COc1ccc(NC(=O)c2ccc3nc(CCc4ccccc4)oc3c2)c(OC)c1,inactive: -2.48%
15,Cc1ccccc1NC(=O)N1CCc2c(sc3c2CCCC3)C1c1ccccc1 (stereo not given),inactive: -23.1%
16,CCOc1ccc(C(=O)Nc2c(C(=O)c3ccc(OC)cc3)oc3ccccc23)cc1,inactive: 19.7%
17,CCC(=O)Nc1ccc(CC)cc1-c1nc2ccccc2n(CC(=O)Nc2cccc(Cl)c2)c1=O,inactive: -1.24%
18,CCCCCn1cc2c(c1-c1ccc(Br)cc1)c(=O)n(C)c(=O)n2C,inactive: -10.4%
19,CCc1ccccc1NC(=O)Cn1c(=O)n(-c2ccc(C)cc2)c(=O)c2c1c1cc(C)ccc1n2C,inactive: -1.76%
20,COc1ccc(OC)c(NC(=O)c2cc3cc(C)ccc3n2C)c1,inactive: 0.0667%
21,COc1cccc(NC(=O)Cn2nnc(-c3nc(-c4ccccc4)no3)c2N)c1,inactive: 1.11%
22,Cc1nc2ncnn2c(C)c1CCC(=O)N1CCN(c2ccccc2)CC1,inactive: 0.118%
23,O=C(Cn1c(=O)oc2cc(Cl)ccc21)Nc1cccc(C(F)(F)F)c1,inactive: -3.12%
24,CCS(=O)(=O)c1ncc(N(Cc2ccccc2)Cc2ccco2)c(C(=O)Nc2ccc(C)c(C)c2)n1,inactive: 0.0434%

row,SMILES,"activity change, negative = cytotoxicity"
1,CCn1c(NCc2ccc(OC)cc2)nc2ccccc21,inactive: 6.65%
2,CCOc1ccc(NC(=O)c2ccc3c(=O)n4nc(Nc5ccccc5C)sc4nc3c2)cc1,inactive: 17.7%
3,COc1cc(C(CC(=O)Nc2ccc(F)cc2F)N2Cc3ccccc3C2=O)cc(OC)c1OC (stereo not given),inactive: 11.6%
4,COCCNC(=O)CCc1c(C)nc2c(-c3ccc(F)cc3)c(C)nn2c1C,inactive: -8.04%
5,COc1ccc(CCNC(=O)CCCCn2c(=O)c3ccccc3n(Cc3ccccc3C)c2=O)cc1OC,inactive: 4.96%
6,COc1ccc(N(CC(=O)NCc2ccccc2Cl)S(=O)(=O)c2c(C)nn(C)c2C)cc1,inactive: 4.74%
7,COc1ccc(CCNC(=O)Cn2c(=O)nc(-c3ccccc3)c3ccccc32)cc1OC,inactive: 25.2%
8,CCOc1ccccc1CNC(=O)CCCn1ncn2c(cc3occc32)c1=O,inactive: 18.3%
9,CCOc1ccc(C(=O)c2cn(CC(=O)Nc3ccc(F)cc3)c3cc4c(cc3c2=O)OCO4)cc1,inactive: -1.03%
10,CN(C)CCCN(C(=O)c1ccc(Br)s1)c1nc2ccc(F)cc2s1,inactive: -0.799%
11,Cc1ccc2cccc(NC(=O)COc3cc(C)c(Cl)c(C)c3)c2n1,inactive: 0.801%
12,CCCSCCCNC(=O)C1CCCN(c2nn3cc(-c4ccc(OC)cc4)nc3s2)C1 (stereo not given),inactive: -6.75%
13,Cn1c(=O)c(=O)n(C)c2cc(NC(=O)c3cccc(F)c3)c(Cl)cc21,inactive: -3.79%
14,CCCCN(CC)CCNC(=O)CN1C(=O)COc2ccc(S(=O)(=O)N3CCCC3)cc21,inactive: 12.2%
15,Cc1ccc(CCNC(=O)CCn2nc(-c3ccccc3)ccc2=O)cc1,inactive: 19.8%
16,Cc1nn(CC(=O)Nc2ccccc2C(F)(F)F)c(=O)c2cccn12,inactive: 8.59%
17,Cc1ccc(NS(=O)(=O)c2ccc3[nH]c(=O)oc3c2)c(C)c1,inactive: -3.92%
18,CCc1cccc(C)c1NC(=O)c1cc(S(=O)(=O)NCc2ccccc2Cl)ccc1F,inactive: -20%
19,CC(=O)NCC(c1ccc2c(c1)OCO2)N1CCN(c2ccccc2)CC1 (stereo not given),inactive: 11.9%
20,Fc1ccc(C(NCCc2ccc(Cl)cc2)c2nnc(-c3ccccc3)o2)c(Cl)c1 (stereo not given),inactive: 2.75%
21,COc1ccccc1CNC(=O)CCn1c(=O)c2ccccc2n(CC(=O)Nc2ccc(C)cc2Cl)c1=O,inactive: -4.88%
22,CCOC(=O)c1c(S(=O)(=O)NCC(=O)N2CCN(c3ccccc3)CC2)c(C)n(C)c1C,inactive: 0.834%
23,CCCN(CCC)C(=O)Cn1c(=O)n(-c2ccccc2)c(=O)c2c3c(sc21)CCCC3,inactive: 1.64%
